Laboratory results taken from publication PMC9911399, “Two distinct binding modes provide the RNA-binding protein RbFox with extraordinary sequence specificity”.
Residue numbers refer to the chain shown, from its start. Some of the results follow.

T1: RBFOX1 RRM (Homo sapiens, UniProt Q9NWB1 109-208)
T1 sequence: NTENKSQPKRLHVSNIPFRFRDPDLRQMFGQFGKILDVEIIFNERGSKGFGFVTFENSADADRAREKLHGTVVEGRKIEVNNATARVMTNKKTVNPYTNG

B1: CCGGGUU (DNA:RNA)
RNA: GGGAGACCGGAAUUCAGAUUGUCCCCGGGUUUUAAAUCCCGUCGUAGCCACCA
DNA 1: CAATCTGAATTCCGGTCTCCC
DNA 2: TGGTGGCTACGACGGGATT
B2: UGGGCCU (DNA:RNA)
RNA: B1 RNA with C25U, C26G, G29C, U30C
DNA 1: CAATCTGAATTCCGGTCTCCC
DNA 2: TGGTGGCTACGACGGGATT
B3: CUUUAUG (DNA:RNA)
RNA: B1 RNA with C26U, G27U, G28U, G29A, U31G
DNA 1: CAATCTGAATTCCGGTCTCCC
DNA 2: TGGTGGCTACGACGGGATT
B4: GCCCACC (DNA:RNA)
RNA: B1 RNA with C25G, G27C, G28C, G29A, U30C, U31C
DNA 1: CAATCTGAATTCCGGTCTCCC
DNA 2: TGGTGGCTACGACGGGATT
B5: UAGCGUU (DNA:RNA)
RNA: B1 RNA with C25U, C26A, G28C
DNA 1: CAATCTGAATTCCGGTCTCCC
DNA 2: TGGTGGCTACGACGGGATT
B6: GAUCAAG (DNA:RNA)
RNA: GGGAGACCGGAAUUCAGAUUGUCCGAUCAAGUUAAAUCCCGUCGUAGCCACCA
DNA 1: CAATCTGAATTCCGGTCTCCC
DNA 2: TGGTGGCTACGACGGGATT
B7: GGAGCCU (DNA:RNA)
RNA: B1 RNA with C25G, C26G, G27A, G29C, U30C
DNA 1: CAATCTGAATTCCGGTCTCCC
DNA 2: TGGTGGCTACGACGGGATT
B8: GCUCGUG (DNA:RNA)
RNA: B6 RNA with A26C, A29G, A30U
DNA 1: CAATCTGAATTCCGGTCTCCC
DNA 2: TGGTGGCTACGACGGGATT
B9: GCUCUGA (DNA:RNA)
RNA: B6 RNA with A26C, A29U, A30G, G31A
DNA 1: CAATCTGAATTCCGGTCTCCC
DNA 2: TGGTGGCTACGACGGGATT
B10: AUUUUGG (DNA:RNA)
RNA: B6 RNA with G25A, A26U, C28U, A29U, A30G
DNA 1: CAATCTGAATTCCGGTCTCCC
DNA 2: TGGTGGCTACGACGGGATT
B11: AUCCCCA (DNA:RNA)
RNA: B6 RNA with G25A, A26U, U27C, A29C, A30C, G31A
DNA 1: CAATCTGAATTCCGGTCTCCC
DNA 2: TGGTGGCTACGACGGGATT
B12: ACACAGC (DNA:RNA)
RNA: B6 RNA with G25A, A26C, U27A, A30G, G31C
DNA 1: CAATCTGAATTCCGGTCTCCC
DNA 2: TGGTGGCTACGACGGGATT
B13: CCUGUCG (DNA:RNA)
RNA: B1 RNA with G27U, G29U, U30C, U31G
DNA 1: CAATCTGAATTCCGGTCTCCC
DNA 2: TGGTGGCTACGACGGGATT
B14: GGUUCGU (DNA:RNA)
RNA: B6 RNA with A26G, C28U, A29C, A30G, G31U
DNA 1: CAATCTGAATTCCGGTCTCCC
DNA 2: TGGTGGCTACGACGGGATT
B15: UAUGUCU (DNA:RNA)
RNA: B1 RNA with C25U, C26A, G27U, G29U, U30C
DNA 1: CAATCTGAATTCCGGTCTCCC
DNA 2: TGGTGGCTACGACGGGATT
B16: CGUAAUG (DNA:RNA)
RNA: B6 RNA with G25C, A26G, C28A, A30U
DNA 1: CAATCTGAATTCCGGTCTCCC
DNA 2: TGGTGGCTACGACGGGATT
B17: UGAGCGU (DNA:RNA)
RNA: B1 RNA with C25U, C26G, G27A, G29C, U30G
DNA 1: CAATCTGAATTCCGGTCTCCC
DNA 2: TGGTGGCTACGACGGGATT
B18: CACGCAU (DNA:RNA)
RNA: B1 RNA with C26A, G27C, G29C, U30A
DNA 1: CAATCTGAATTCCGGTCTCCC
DNA 2: TGGTGGCTACGACGGGATT
B19: UUUUAUU (DNA:RNA)
RNA: B1 RNA with C25U, C26U, G27U, G28U, G29A
DNA 1: CAATCTGAATTCCGGTCTCCC
DNA 2: TGGTGGCTACGACGGGATT
B20: CGUGGCU (DNA:RNA)
RNA: B1 RNA with C26G, G27U, U30C
DNA 1: CAATCTGAATTCCGGTCTCCC
DNA 2: TGGTGGCTACGACGGGATT
B21: AUUAUAU (DNA:RNA)
RNA: B6 RNA with G25A, A26U, C28A, A29U, G31U
DNA 1: CAATCTGAATTCCGGTCTCCC
DNA 2: TGGTGGCTACGACGGGATT
B22: AGAGAAA (DNA:RNA)
RNA: B6 RNA with G25A, A26G, U27A, C28G, G31A
DNA 1: CAATCTGAATTCCGGTCTCCC
DNA 2: TGGTGGCTACGACGGGATT
B23: UUAUGAA (DNA:RNA)
RNA: B1 RNA with C25U, C26U, G27A, G28U, U30A, U31A
DNA 1: CAATCTGAATTCCGGTCTCCC
DNA 2: TGGTGGCTACGACGGGATT
B24: UGAACGC (DNA:RNA)
RNA: GGGAGACCGGAAUUCAGAUUGUCCUGAACGCUUAAAUCCCGUCGUAGCCACCA
DNA 1: CAATCTGAATTCCGGTCTCCC
DNA 2: TGGTGGCTACGACGGGATT
B25: AUCCGAU (DNA:RNA)
RNA: B1 RNA with C25A, C26U, G27C, G28C, U30A
DNA 1: CAATCTGAATTCCGGTCTCCC
DNA 2: TGGTGGCTACGACGGGATT
B26: ACACUUU (DNA:RNA)
RNA: B1 RNA with C25A, G27A, G28C, G29U
DNA 1: CAATCTGAATTCCGGTCTCCC
DNA 2: TGGTGGCTACGACGGGATT
B27: GUAGCUU (DNA:RNA)
RNA: B1 RNA with C25G, C26U, G27A, G29C
DNA 1: CAATCTGAATTCCGGTCTCCC
DNA 2: TGGTGGCTACGACGGGATT
B28: UGGUCAC (DNA:RNA)
RNA: B24 RNA with A27G, A28U, G30A
DNA 1: CAATCTGAATTCCGGTCTCCC
DNA 2: TGGTGGCTACGACGGGATT
B29: GCUUACG (DNA:RNA)
RNA: B6 RNA with A26C, C28U, A30C
DNA 1: CAATCTGAATTCCGGTCTCCC
DNA 2: TGGTGGCTACGACGGGATT
B30: ACGUAUU (DNA:RNA)
RNA: B1 RNA with C25A, G28U, G29A
DNA 1: CAATCTGAATTCCGGTCTCCC
DNA 2: TGGTGGCTACGACGGGATT
B31: GGGCGUU (DNA:RNA)
RNA: B1 RNA with C25G, C26G, G28C
DNA 1: CAATCTGAATTCCGGTCTCCC
DNA 2: TGGTGGCTACGACGGGATT

Each binder was assayed against T1, RBFOX1 RRM (assay: EMSA; HiTS-Eq, 1 nM pool, 10 min; buffer printed only for the single-RNA assays: 10 mM Tris pH 7.5, 150 mM NaCl, 3.4 mM EDTA, 0.001% NP-40, 30 C). Settings: tags: His6 N-terminal (pET28a); label: 5' 32P.
Outline: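 A pool of RNA with 7 randomized nucleotides, 5′-radiolabelled and with DNA-annealed flanks, was equilibrated at 1 nM for 10 min in 50 µL with purified RbFox RRM, wild type or mutant, across increasing protein concentrations. Free RNA was separated by 8% native PAGE, excised, reverse-transcribed, barcoded by PCR and sequenced. Relative association constants were obtained from read-count changes of each RNA species versus the control reaction and normalised to the cognate motif.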
In the case of B1, the binding signal is reported as 0.0196 KA relative to UGCAUGU.
With B2 the binding signal was 0.0237 KA relative to UGCAUGU.
In the case of B3, the binding signal is reported as 0.0126 KA relative to UGCAUGU.
In the case of B4, the binding signal is reported as 0.00588 KA relative to UGCAUGU.
With B5 the binding signal was 0.0117 KA relative to UGCAUGU.
B6 was tested, and the binding signal was 0.0079 KA relative to UGCAUGU.
In the case of B7, the binding signal is reported as 0.0142 KA relative to UGCAUGU.
B8 was tested, and the binding signal was 0.0268 KA relative to UGCAUGU.
With B9 the binding signal was 0.0253 KA relative to UGCAUGU.
In the case of B10, the binding signal is reported as 0.00906 KA relative to UGCAUGU.
In the case of B11, the binding signal is reported as 0.000607 KA relative to UGCAUGU.
For B12, the binding signal was 0.000341 KA relative to UGCAUGU.
For B13, the binding signal was 0.0121 KA relative to UGCAUGU.
For B14, the binding signal was 0.0165 KA relative to UGCAUGU.
In the case of B15, the binding signal is reported as 0.0135 KA relative to UGCAUGU.
For B16, the binding signal was 0.0127 KA relative to UGCAUGU.
With B17 the binding signal was 0.0215 KA relative to UGCAUGU.
B18 was tested, and the binding signal was 0.00481 KA relative to UGCAUGU.
For B19, the binding signal was 0.00461 KA relative to UGCAUGU.
With B20 the binding signal was 0.0195 KA relative to UGCAUGU.
In the case of B21, the binding signal is reported as 0.000815 KA relative to UGCAUGU.
With B22 the binding signal was 0.00515 KA relative to UGCAUGU.
B23 was tested, and the binding signal was 0.014 KA relative to UGCAUGU.
In the case of B24, the binding signal is reported as 0.016 KA relative to UGCAUGU.
For B25, the binding signal was 0.00393 KA relative to UGCAUGU.
In the case of B26, the binding signal is reported as 0.00141 KA relative to UGCAUGU.
In the case of B27, the binding signal is reported as 0.0122 KA relative to UGCAUGU.
For B28, the binding signal was 0.0142 KA relative to UGCAUGU.
B29 was tested, and the binding signal was 0.0122 KA relative to UGCAUGU.
For B30, the binding signal was 0.00231 KA relative to UGCAUGU.
For B31, the binding signal was 0.0253 KA relative to UGCAUGU.
